The whole screen tested about 45,000 compounds, of which about 200 (0.44%) were called active. Not shown: some 7% with an inconclusive outcome. Calls follow the shape of the dose curve; as a rule, active = well fitted activation curve with a large enough effect; inconclusive = small, poorly fitted or top-dose-only effect; inactive = no such curve, though single readings can be large or run the other way. Some of the results follow.
Assay: qHTS of TDP-43 Inhibitors: NCGC Sytravon Library Screen; also: 0% is about no effect; nearly all actives have a fitted effect of over 55% in size
Details: yeast TDP-43 toxicity rescue, BacTiter-Glo growth, 24 h; series mostly up to 46.1 µM; growth rescue (activation): at the top concentration
Summary of the method: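 TDP-43-expressing yeast, pregrown in raffinose, seeded at OD600 0.02 in galactose medium with compound for 24 hr at 30 deg C. Growth read by BacTiter-Glo luminescence, so rescue of toxicity appears as activation.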
In the case of `CCn1c(CCl)nc2cc(S(=O)(=O)N3CCOCC3)ccc21`, the “growth rescue (activation)” value is reported as inactive: -11.8%. For `Cc1ccc2c(c1)N(Cc1ccc([N+](=O)[O-])cc1)C=NS2(=O)=O`, the “growth rescue (activation)” value was inactive: 6.38%. With `CCOCCCNC(=O)C1CCN(S(=O)(=O)N2CCCC2)CC1` the “growth rescue (activation)” value was inactive: -8.09%. In the case of `COC(=O)c1c(C)nn(-c2ccc(F)cc2)c1-n1cccc1`, the “growth rescue (activation)” value is reported as inactive: 18.9%. With `Fc1ccccc1Cc1noc(CN2CCC(OCc3cccnc3)CC2)n1` the “growth rescue (activation)” value was inactive: -24.1%. For `C=CCNC(=S)Nc1nc2c(cc1C(=O)OCC)CCCC2`, the “growth rescue (activation)” value was inactive: -6.19%. For `COc1ccc(C2CC(c3ccc4ccccc4c3)=NN2C(=O)CN2C(=O)CCC2=O)cc1` (stereo not drawn), the “growth rescue (activation)” value was inactive: 6.04%. For `O=C(C1CCCN(CCCc2ccccc2)C1)N1CCCCC1` (stereo not drawn), the “growth rescue (activation)” value was inactive: 0.794%. For `COc1cc2c(cc1OC)C1=C(C#N)CCC(=NC(=O)c3ccc(Cl)cc3)N1CC2`, the “growth rescue (activation)” value was inactive: 19.8%. For `COc1ccccc1NC(=O)CC(NC1CCCCC1)C(=O)O` (stereo not drawn), the “growth rescue (activation)” value was inactive: 19.8%. With `CCCCNC(=O)NS(=O)(=O)c1ccc(NC(=O)C(NC(N)=O)C(C)CC)cc1` (stereo not drawn) the “growth rescue (activation)” value was inactive: -5.17%. For `COCCOC(=O)C1=C(C)NC(=O)NC1c1ccc(-c2cc(Cl)ccc2Cl)o1` (stereo not drawn), the “growth rescue (activation)” value was inactive: -9.59%. For `O=C(NC(=S)Nc1ccc(CN2CCCCC2)cc1)c1ccco1`, the “growth rescue (activation)” value was inactive: -10.5%. For `CCCCNC(=O)c1ccc2nc(CC)c(N(C)Cc3ccc(OC)cc3)n2c1`, the “growth rescue (activation)” value was inactive: 8.32%. For `CC1CC(C)CN(CCOc2cccc3ccccc23)C1` (stereo not drawn), the “growth rescue (activation)” value was inactive: 5.28%. In the case of `C=CCOc1ccc(/C=C/C(=O)OCC(=O)NNC(=O)c2ccccc2F)cc1`, the “growth rescue (activation)” value is reported as inactive: 17.3%. For `CCOc1ccc(CN2CCN(Cc3cccn3-c3ncccn3)CC2CCO)cc1` (stereo not drawn), the “growth rescue (activation)” value was inactive: 4.37%. With `Cc1cc(C)n2c(SCC(=O)N(C)C3CCCCC3)nnc2n1` the “growth rescue (activation)” value was inactive: 3.31%. With `CC(C)Cc1csc(NC(=O)c2ccc(F)cc2)c1C(=O)O` the “growth rescue (activation)” value was inactive: 0.467%. With `O=C(NC(Cc1ccccc1)C(=O)O)/C(=C/c1ccc(Cl)cc1)NC(=O)c1ccco1` (stereo not drawn) the “growth rescue (activation)” value was inactive: -12.1%. With `O=C(Nc1ccccc1Cl)NC1(C(=O)NCc2ccncc2)CCCCC1` the “growth rescue (activation)” value was inactive: -19.4%. For `CC(NC(=O)/C=C/c1ccccc1[N+](=O)[O-])C1CC2CCC1C2` (stereo not drawn), the “growth rescue (activation)” value was inactive: 6.23%. In the case of `Cc1nc2nc(SCC(=O)NCc3ccco3)nn2c(C)c1Cc1ccccc1`, the “growth rescue (activation)” value is reported as inactive: -22.6%. With `CS(=O)(=O)c1ccc(Oc2ccc(-c3nnco3)cc2)c([N+](=O)[O-])c1` the “growth rescue (activation)” value was inactive: -2.35%. For `C(=C\c1ccccc1)/CNCC1CCCO1` (stereo not drawn), the “growth rescue (activation)” value was inactive: 13%. With `Cc1cc(Oc2ccc([N+](=O)[O-])cc2)nc(N2CCOCC2)n1` the “growth rescue (activation)” value was inactive: 6.14%. For `CC1(C)SC(=S)N(NC(=O)Nc2cccc3ccccc23)C1N(O)C(=O)Nc1ccccc1` (stereo not drawn), the “growth rescue (activation)” value was inactive: 14%. With `C/C(=N\NC(=O)c1cccc(S(=O)(=O)Nc2cccc(Cl)c2)c1)c1cccs1` the “growth rescue (activation)” value was inactive: -3.42%. In the case of `O=S(=O)(c1ccc2ccccc2c1)N(CC1CO1)c1ccccc1` (stereo not drawn), the “growth rescue (activation)” value is reported as inactive: 7.54%. With `COc1ccc(C(=O)NCC(=O)OCC(=O)Nc2sccc2C#N)cc1OC` the “growth rescue (activation)” value was inactive: -10.3%. In the case of `CC(=O)c1ccc(NC(=O)C(C)OC(=O)COc2ccc(C#N)cc2)cc1` (stereo not drawn), the “growth rescue (activation)” value is reported as inactive: 15.4%. In the case of `Cc1cc(Br)ccc1NC(=O)c1cnc(N2CCN(c3ccccn3)CC2)c2ccccc12`, the “growth rescue (activation)” value is reported as inactive: 10.7%. In the case of `O=C(NCc1cccc(Cl)c1)C1CCN(C(=O)c2sccc2-n2cccc2)CC1`, the “growth rescue (activation)” value is reported as inactive: 7.21%. For `CN(C)S(=O)(=O)c1cccc(-c2csc(N/N=C/c3ccco3)n2)c1`, the “growth rescue (activation)” value was inactive: 25.8%. In the case of `O=C(CS(=O)(=O)c1ccccc1)Nc1ccc(S(=O)(=O)Nc2ccccn2)cc1`, the “growth rescue (activation)” value is reported as inactive: 2.39%. For `Cc1cccc(C(=O)NNC(=O)CSc2nnc(C3CC3)n2C)c1`, the “growth rescue (activation)” value was inactive: -25.2%. With `O=S(=O)(NCCc1nc2ccccc2[nH]1)c1ccccc1` the “growth rescue (activation)” value was inactive: 3.99%. With `O=C(C1CC(=O)N(c2ccc(Cl)cc2)C1)N1CCN(Cc2ccc3c(c2)OCO3)CC1` (stereo not drawn) the “growth rescue (activation)” value was inactive: 1.03%. For `Cn1ncc(N2CCN(C(=O)c3ccc(Cl)cc3)CC2)c(Cl)c1=O`, the “growth rescue (activation)” value was inactive: 3.76%. With `COc1cccc(C(NC(C)=O)c2nc(-c3ccc(OC)nc3)cs2)c1` (stereo not drawn) the “growth rescue (activation)” value was inactive: 24.5%. With `CC(C)(Cc1ccc(O)cc1)NC(=O)CC(=O)N=Nc1c(O)[nH]c2ccc(Br)cc12` the “growth rescue (activation)” value was inactive: 7.94%. For `CCc1cccc(NC(=O)c2ccc(CNc3c(N4CCCC4)c(=O)c3=O)cc2)c1`, the “growth rescue (activation)” value was inactive: -1.72%. In the case of `Cc1nc2c(c(=O)n1CCC(C)C)c1nc3ccccc3nc1n2Cc1ccc2c(c1)OCO2`, the “growth rescue (activation)” value is reported as inactive: -1.1%. For `O=C(CCNC(=O)c1ccccc1)NCCc1ccc(Cl)cc1`, the “growth rescue (activation)” value was inactive: 1.73%. In the case of `CSCc1ccc(C(=O)NCc2ccc(F)cc2)cc1`, the “growth rescue (activation)” value is reported as inactive: 14.3%. In the case of `Cc1cccc(N=Nc2ccc(O)c3ncccc23)c1`, the “growth rescue (activation)” value is reported as inactive: -55.1%. In the case of `CC(NC(=O)c1cccc(Br)c1)c1ccccc1` (stereo not drawn), the “growth rescue (activation)” value is reported as inactive: 30.4%. With `CCc1c(C)nc2nc(SCc3ccccc3Cl)[nH]n2c1=O` the “growth rescue (activation)” value was inactive: -3.8%. For `O=C(Nc1ccccc1F)C1CCN(C(=O)NC2CCCCC2)CC1`, the “growth rescue (activation)” value was inactive: 19.5%. For `O=C(Nc1ccc(F)cc1)C1CCCCC1`, the “growth rescue (activation)” value was inactive: 26.1%. In the case of `O=C(COc1ccc(S(=O)(=O)N2CCOCC2)cc1Cl)N1CCOCC1`, the “growth rescue (activation)” value is reported as inactive: 1.12%. With `Cc1ccccc1Cn1cc(C)c(=O)[nH]c1=O` the “growth rescue (activation)” value was inactive: -10.9%. With `Cc1cccc(OCC(=O)N(Cc2sccc2C)C2CCS(=O)(=O)C2)c1` (stereo not drawn) the “growth rescue (activation)” value was inactive: 15.6%.

— PubChem BioAssay AID1347073 (National Center for Advancing Translational Sciences (NCATS), 2019)
